# Source: publication PMC4336329 (PLoS ONE, 2015)
# Hit rate of the full screen: of about 310,000 compounds, about 14,000 (4.5%) showed an effect of 50% or more. The effect is printed as a negative number. This is one part of the list.
# Target: human ether-à-go-go-related gene (hERG) potassium channel (human, UniProt Q12809)
# Experiment: primary screen, population patch clamp on CHO cells stably expressing hERG
# 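Further: peak tail current of the secondary pulse compared with the same well before compound.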
# Chain of human ether-à-go-go-related gene (hERG) potassium channel (Q12809 whole entry, looked up): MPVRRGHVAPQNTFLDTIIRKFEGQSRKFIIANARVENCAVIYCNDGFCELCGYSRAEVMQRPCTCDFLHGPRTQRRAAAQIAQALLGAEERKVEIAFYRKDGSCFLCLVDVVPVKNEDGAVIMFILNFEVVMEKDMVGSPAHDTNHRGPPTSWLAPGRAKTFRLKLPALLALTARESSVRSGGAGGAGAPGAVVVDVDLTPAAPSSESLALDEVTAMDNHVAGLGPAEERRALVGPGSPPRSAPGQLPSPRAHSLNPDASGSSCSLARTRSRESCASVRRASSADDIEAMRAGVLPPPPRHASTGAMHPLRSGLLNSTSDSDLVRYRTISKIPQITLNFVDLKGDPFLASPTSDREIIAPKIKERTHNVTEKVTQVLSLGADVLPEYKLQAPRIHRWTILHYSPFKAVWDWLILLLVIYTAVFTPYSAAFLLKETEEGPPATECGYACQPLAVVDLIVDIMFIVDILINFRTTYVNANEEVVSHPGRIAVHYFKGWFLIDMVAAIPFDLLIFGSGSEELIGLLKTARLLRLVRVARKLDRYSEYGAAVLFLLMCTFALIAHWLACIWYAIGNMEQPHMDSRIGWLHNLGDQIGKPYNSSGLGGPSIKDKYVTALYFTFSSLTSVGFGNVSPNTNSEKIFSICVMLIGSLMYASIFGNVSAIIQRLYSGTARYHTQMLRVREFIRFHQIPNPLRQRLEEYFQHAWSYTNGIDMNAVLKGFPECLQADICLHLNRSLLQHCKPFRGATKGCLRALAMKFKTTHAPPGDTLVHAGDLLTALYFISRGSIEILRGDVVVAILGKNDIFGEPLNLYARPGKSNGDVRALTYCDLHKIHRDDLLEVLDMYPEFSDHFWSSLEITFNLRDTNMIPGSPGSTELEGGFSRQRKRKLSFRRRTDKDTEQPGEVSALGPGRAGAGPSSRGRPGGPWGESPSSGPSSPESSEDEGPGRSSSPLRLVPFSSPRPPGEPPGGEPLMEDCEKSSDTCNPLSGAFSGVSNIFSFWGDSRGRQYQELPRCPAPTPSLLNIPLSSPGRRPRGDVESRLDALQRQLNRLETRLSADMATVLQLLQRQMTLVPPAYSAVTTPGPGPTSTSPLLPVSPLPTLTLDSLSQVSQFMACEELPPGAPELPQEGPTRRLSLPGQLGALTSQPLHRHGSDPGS
row,Structure (SMILES),"hERG current change (%, negative = inhibition) at 10uM [%]"
1,O=C(Cn1c(=O)n2ncnc2c2c3c(sc21)CCCC3)c1ccccc1,-20.1
2,COC(=O)C1C(=O)NCC1c1ccc(OC)cc1 (centres unmarked),3.5
3,Nc1c2c(nc3sc4c(c13)CCCC4)CCCCCC2,-2.15
4,O=C(NC1CC2CCC(C1)N2Cc1ccco1)c1ccccc1 (centres unmarked),-25.4
5,Cc1c(NC(=S)N/N=C/c2ccc(O)cc2)c(=O)n(-c2ccccc2)n1C,8.18
6,CC(C)Cc1ccc(S(=O)(=O)N2CCN(c3ccccn3)CC2)cc1,17.3
7,O=C(CC1C(=O)N(c2ccccc2)C(=S)N1c1ccccc1)c1ccc(Br)cc1 (centres unmarked),22.9
8,O=C1/C(=C/c2ccncc2)Oc2cc(OS(=O)(=O)c3ccccc3)ccc21,-2.95
9,COC(=O)CNC(=O)CCC(=O)N1CCN(C(c2ccccc2)c2ccccc2)CC1,-0.103
10,CCOC(=O)C1CCCN(C(=O)CCNS(=O)(=O)c2ccc3c(c2)CCC(=O)N3)C1 (centres unmarked),3.03
11,CC1CCN(CC(=O)N2c3ccccc3CC2C)CC1.Cl (centres unmarked),1.42
12,O=C(COC(=O)C1CCCC1)NCc1ccc(Cl)cc1,-4.3
13,N/C(=N\OC(=O)CN1C(=O)c2ccccc2C1=O)c1ccc(Br)cc1,15.5
14,CCCc1nnc(NC(=O)CCC(=O)N2CCN(CCn3c(C)ccc3C)CC2)s1,4.28
15,CCC(c1ccccc1)c1nc(-c2cccnc2)no1 (centres unmarked),-14.1
16,Cc1ccc(S(=O)(=O)Oc2ccccc2/C=N/N=C(N)N)cc1,-27.5
17,CCc1cccc(CC)c1NC(=O)Cn1c(-c2ccccc2Cl)nc2ccccc21,11.5
18,Brc1cccc(CN2CCCCCCC2)c1,-5.2
19,Cc1ccc(S(=O)(=O)Nc2nc3c(s2)C(=O)CC(C)(C)C3)cc1,13.5
20,Cc1cc(C(=O)Nc2cccc(S(=O)(=O)N3CCCC3)c2)c2ccccc2n1,7.45
21,CCN(C(=O)c1ccccc1F)c1nc(-c2ccc(OC)cc2)cs1,22.8
22,CCC(=O)Nc1c2c(nn1-c1cccc(Cl)c1)CS(=O)(=O)C2,-38.7
23,O=C(Nc1cccc(NC(=S)NC(=O)c2cccs2)c1)c1ccccc1,10.9

row,Structure (SMILES),"hERG current change (%, negative = inhibition) at 10uM [%]"
1,Cc1c(NC(=O)C(=O)N/N=C/c2cccs2)c(=O)n(-c2ccccc2)n1C,16.5
2,CCc1cc(=O)[nH]c(SCc2cccc3ccccc23)n1,13.3
3,CCCc1nc(SCC(=O)Nc2ccccc2OC)c2c(=O)n(C)c(=O)n(C)c2n1,-7.7
4,CCS(=O)(=O)N1CCC(C(=O)Nc2cc(Cl)ccc2O)CC1,0.943
5,CCCOc1ccc(C(=O)Nc2ccc(S(=O)(=O)Nc3onc(C)c3C)cc2)cc1,13.8
6,Cn1c(NC(=O)c2ccco2)c(-c2ccc(Cl)cc2)c(=O)c2ccccc21,20.8
7,Cc1nn(Cc2ccccc2Cl)c(Cl)c1C(=O)O,8.83
8,Cc1cccc(NC(=O)CSc2nnc(NC(=O)CN3CCCCC3)s2)c1,-7.69
9,CN(C)CCNc1oc(-c2cccc(Cl)c2)nc1C#N,-36.2
10,Nc1ncn([C@@H]2O[C@H](CO)[C@@H](O)[C@H]2O)c(=O)n1,-1.53
11,O=C(CCCNS(=O)(=O)c1cccc2nsnc12)NCCc1ccccc1,5.61
12,O/N=C1\CCCC\C1=C/c1ccccc1,-8.27
13,CN1C[C@@H]2C(c3ccc(C(F)(F)F)cc3)C3(c4cccnc4)CC2(C3)[C@H]1c1ccccc1 (some centres unmarked),-60
14,CC(C)OC(=O)CN1C(=O)C(C)(C)Oc2ccc(C(=O)NC(C)(C)C)cc21,2.74
15,CC1(C)C=C(c2ccc(C=O)s2)CC(C)(C)N1,-4.45
16,O=C1CC(Sc2nnnn2C2CCCCC2)C(=O)N1c1ccccc1 (centres unmarked),0.56
17,O=C(CCNS(=O)(=O)c1ccccc1)N1CCC(Cc2ccccc2)CC1,-16.8
18,Cc1cccc(C)c1N1CCN(S(=O)(=O)N2CCCCC2)CC1,18.9
19,CCCc1nnc(NC(=O)CN2C(=O)c3ccccc3S2(=O)=O)s1,10.6
20,Cc1ccc(C)c(OCc2ccc(C(=O)NN)o2)c1,-1.95
21,CCC(C)(C)NC(=O)C1CCN(c2nc(C)cc(C)n2)CC1,8.36
22,O=C(NCc1cccc(Cl)c1)C1CCN(S(=O)(=O)c2ccc(F)cc2)CC1,-12
23,COc1cc(/C=N/NC(=O)CN2CCCCC2)ccc1OCc1ccc(Br)cc1,-59

row,Structure (SMILES),"hERG current change (%, negative = inhibition) at 10uM [%]"
1,CC(C)(C)NC(=O)C(c1ccc(O)cc1)N(Cc1ccccc1)C(=O)CCC(=O)Nc1nccs1 (centres unmarked),5.02
2,CCOc1ccc(NC(=O)C2=C(C)NC(=S)NC2c2ccc(O)c(OC)c2)cc1 (centres unmarked),6.09
3,CC(C)C[C@H](NC(=O)c1nc[nH]c1C(=O)NC1CC[NH2+]CC1)C(=O)OC(C)(C)C.[Cl-],22.9
4,Cc1ccc(CNC(=O)COC(=O)CCOc2ccc(C)cc2)cc1,5.6
5,CNC(=S)N(Cc1ccc(OC)cc1)Cc1cc2cccc(C)c2[nH]c1=O,0.535
6,COc1cc(C(=O)Nc2ccc3oc(-c4cccnc4)nc3c2)cc(OC)c1OC,10.5
7,CCCC12CN3CC(C)(CN(C1)C3c1ccc3c(c1)OCO3)C2=O (centres unmarked),-10.9
8,Cc1ccc(OS(=O)Nc2cccc3nccnc23)cc1 (centres unmarked),-18.6
9,Nc1cccnc1Sc1ccc(Cl)cc1,-14.9
10,Cc1c(C)c2ccc(OCC(=O)N3CC[C@@]4(O)CCCC[C@H]4C3)c(C)c2oc1=O,-0.536
11,Cc1ccc(C(C)C)cc1NC(=O)Nc1ccc([N+](=O)[O-])cc1,21.4
12,Cc1cc(C)cc(NC(=O)C2CCCN(S(=O)(=O)c3ccc4[nH]c(=O)ccc4c3)C2)c1 (centres unmarked),-8.13
13,O=C(Cn1c(=S)[nH]c2ccccc2c1=O)N1CCN(c2ccccc2)CC1,14.3
14,O=C(Nc1cccc(F)c1)/C(=C/c1ccco1)NC(=O)c1ccco1,-23.8
15,Cc1ccccc1C(=O)Nc1ccc(N2CCN(C(=O)c3ccco3)CC2)cc1,-4.23
16,Cc1ccc(S(=O)(=O)N(CC(=O)Nc2ccccc2C(=O)O)c2cccc(Cl)c2C)cc1,3.29
17,Cc1nc2ccccc2n1CC(=O)NCCN1CCCC1,-1.4
18,O=C(COc1ccc(Cl)cc1Cl)NC(=S)Nc1ccccc1C(=O)O,19.9
19,COc1ccc(C2=Nn3c(nnc3-c3ccccn3)SC2)cc1OC,-34.3
20,CN(C(=O)Nc1cnc2ccccc2c1)c1ccccc1,-3.36
21,CCn1c2ccccc2c2nnc(SCCN3CCOCC3)nc21,3.2
22,CSc1nsc(SCC(=O)Nc2cccc(NC(C)=O)c2)n1,3.67
23,Cc1ccc(CN2CC(C(=O)N3CCN(c4ccccc4O)CC3)CC2=O)cc1 (centres unmarked),-6.43

row,Structure (SMILES),"hERG current change (%, negative = inhibition) at 10uM [%]"
1,COc1ccc(-n2c(CNC(=O)c3cccs3)n[nH]c2=S)cc1,27.7
2,CC1CCCCC1NC(=O)COC(=O)c1c2c(nc3ccccc13)/C(=C/c1ccco1)CC2 (centres unmarked),-2.63
3,O=C(O)c1cccc(NC(=S)N/N=C/c2cccnc2)c1,9.92
4,COc1cc(C(=O)NC(=S)Nc2nccs2)cc(OC)c1OC,17.7
5,CCCn1c(SCC(=O)NCc2cccs2)nc2c1c(=O)n(C)c(=O)n2C,-2.03
6,OCCCn1c(-c2ccccc2)n[nH]c1=S,11.8
7,CC(=O)Nc1cccc(OC(=O)c2ccoc2C)c1,0.497
8,O=C(CN1CCN(C(=O)c2cncn2-c2ccccc2)CC1)Nc1ccccc1Cl,-77.3
9,CSc1cccc(NC(=O)CCNC(=O)c2ccco2)c1,7.19
10,O=C1c2ccccc2C(=O)N1Cc1nc(-c2ccccc2)no1,12.1
11,O=C(OCC(=O)N(Cc1ccccc1)C1CCS(=O)(=O)C1)c1cc2c(s1)CCCC2 (centres unmarked),2.71
12,S=C1NCN(Cc2cccnc2)CN1c1cccc(Cl)c1,-1.87
13,Cc1occc1-c1nnc(SCC(=O)Nc2nccs2)n1CCc1ccccc1,-60.3
14,CCCOC(=O)c1c(-c2ccc(C)cc2C)csc1NC(=O)C1C2CCC(O2)C1C(=O)O (centres unmarked),-0.946
15,COc1ccc(N2C(=O)NC3CC2(C)Oc2ccc(Br)cc23)cc1OC (centres unmarked),6
16,Cn1c(-c2ccc(Cl)nc2)nc2cc(Cl)ccc21,-9.09
17,O=C(C1=C[C@H](C2CC2)C[C@H](OCc2ccc(CO)cc2)O1)N1CCOCC1,15.5
18,O=c1c2[nH]c3ccccc3c2ncn1Cc1ccncc1,-19.8
19,Cc1ccc(OC/C(O)=C(\C#N)c2nc3ccccc3s2)cc1,18
20,CC(C)N1CC=C(c2c[nH]c3ccccc23)CC1,-8.03
